Experimental data: PubChem BioAssay AID411 (National Center for Advancing Translational Sciences (NCATS), 2006)
Several values for one entry are separate records, joined by “and”; a condition that tells them apart may be missing. Equal entries are not always repeated. Among all 72,000 compounds or so, about 1,600 (2.2%) were called active. Calls come from the whole dose curve; as a rule, active = well fitted inhibition curve with a large enough effect; inconclusive = small, poorly fitted or top-dose-only effect; inactive = flat fitted curve, though single readings scatter. Only a part is listed here, and it is no random draw.

Biological target: Luciferin 4-monooxygenase (Photinus pyralis) (UniProt P08659)
UniProt P08659, sequence (P08659 whole entry, looked up): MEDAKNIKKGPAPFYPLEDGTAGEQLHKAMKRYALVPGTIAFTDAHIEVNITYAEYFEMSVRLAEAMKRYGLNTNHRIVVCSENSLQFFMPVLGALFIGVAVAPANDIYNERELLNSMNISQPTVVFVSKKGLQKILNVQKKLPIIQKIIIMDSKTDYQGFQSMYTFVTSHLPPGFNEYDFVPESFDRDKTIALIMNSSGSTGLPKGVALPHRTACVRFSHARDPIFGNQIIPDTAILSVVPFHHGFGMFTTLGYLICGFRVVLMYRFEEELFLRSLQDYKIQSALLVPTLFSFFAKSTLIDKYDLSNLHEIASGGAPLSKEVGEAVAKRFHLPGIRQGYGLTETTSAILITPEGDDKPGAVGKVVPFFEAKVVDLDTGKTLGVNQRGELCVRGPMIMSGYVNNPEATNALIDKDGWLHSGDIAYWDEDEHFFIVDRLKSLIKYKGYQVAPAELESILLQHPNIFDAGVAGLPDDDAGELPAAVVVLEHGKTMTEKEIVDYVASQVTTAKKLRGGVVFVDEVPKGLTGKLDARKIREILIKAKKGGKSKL
Experiment: qHTS Assay for Inhibitors of Firefly Luciferase; note: nearly all actives have a fitted effect of over 40% in size
Conditions: purified firefly luciferase, luminescence, 8 min
Protocol: To aid in the interpretation of high-throughput screening (HTS) results derived from luciferase-based assays, we used quantitative HTS, an approach that defines the concentration-response behavior of each library sample, to profile the ATP-dependent luciferase from Photinus pyralis against more than 72 000 samples. Luciferase (PKLight, Cambrex Corporation) was assayed for its ability to generate light using ATP and luciferin as substrates. The ATP concentration in the assay (10 uM) was within the linear range of enzyme activity for the assay conditions used. See following reference for further details: [1] Auld DS, Southall NT, Jadhav A, Johnson RL, Diller DJ, Simeonov A, Austin CP, Inglese J. Characterization of chemical libraries for luciferase inhibitory activity. J Med Chem. 2008 Apr 24;51(8):2372-86. Auld DS, Zhang YQ, Southall NT, Rai G, Landsman M, Maclure J, Langevin D, Thomas CJ, Austin CP, Inglese J. A Basis for Reduced Chemical Library Inhibition of Firefly Luciferase Obtained from Directed Evolution. J. Med. Chem., 2009, 52 (5), pp 1450#1458 [3] Auld DS, Thorne N, Nguyen DT, Inglese J. A specific mechanism for nonspecific activation in reporter-gene assays. ACS Chem Biol. 2008 Aug 15;3(8):463-70. Auld DS, Thorne N, Maguire WF, Inglese J. Mechanism of PTC124 activity in cell-based luciferase assays of nonsense codon suppression. Proc Natl Acad Sci U S A. 2009 Mar 3;106(9):3585-90. Inglese J, Auld DS, Jadhav A, Johnson RL, Simeonov A, Yasgar A, Zheng W, Austin CP. Quantitative high-throughput screening: a titration-based approach that efficiently identifies biological activities in large chemical libraries. Proc Natl Acad Sci U S A. 2006 Aug 1;103(31):11473-8.
Four uL of substrate mix (final concentration, 50 mM imidazole pH 7.2, 50 mM KCl, 7 mM MgCl2, 10 uM ATP, 0.01% Tween 20, 0.05% BSA) was dispensed into white 1536 well plates. Twenty-three nL of compound was delivered by a pin tool and 2 uL of luciferase detector mix (PKLight, Cambrex) was added. Following 8-minute incubation at ambient temperature, luminescence was measured by a ViewLux (Perkin Elmer) at 5 seconds exposure/plate.
% is set by controls: 0 for no effect and ±100 for the full control effect.

| SMILES | activity change, negative = inhibition (at 57.1 µM (top of the series)) | activity change, negative = inhibition (at 25.5 µM (top of the series)) |
| --- | --- | --- |
| CCCN1CCO[C@@H]2c3cc(O)ccc3OC[C@H]21 | inactive: 1.22% and inactive: 0.504% | – |
| O[C@H]1CCCC[C@H]1N1CCC(c2ccccc2)CC1 | inactive: 0.481% | inactive: 4.99% |
| O[C@@H]1CCCC[C@H]1N1CCC(c2ccccc2)CC1 | inactive: 1.11% | – |
